From publication PMC6919601, “Identification of Plasmodium dipeptidyl aminopeptidase allosteric inhibitors by high throughput screening” (PLoS ONE, 2019)
The campaign covered roughly 110,000 compounds. About 230 (0.21%) showed an effect of 50% or more. The list shows a part of the results.

Biological target: DPAP1 (Plasmodium falciparum, UniProt Q8IIJ9)
Assay: primary screen, percent inhibition; read by cleavage of a fluorogenic dipeptide substrate; higher = more effect of the substance
Set-up: species or system P. falciparum D10 trophozoite lysates; single well
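Note: 30 min substrate incubation versus DMSO and 10 µM JCP410 controls.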

Sequence of DPAP1 (Q8IIJ9 whole entry, looked up): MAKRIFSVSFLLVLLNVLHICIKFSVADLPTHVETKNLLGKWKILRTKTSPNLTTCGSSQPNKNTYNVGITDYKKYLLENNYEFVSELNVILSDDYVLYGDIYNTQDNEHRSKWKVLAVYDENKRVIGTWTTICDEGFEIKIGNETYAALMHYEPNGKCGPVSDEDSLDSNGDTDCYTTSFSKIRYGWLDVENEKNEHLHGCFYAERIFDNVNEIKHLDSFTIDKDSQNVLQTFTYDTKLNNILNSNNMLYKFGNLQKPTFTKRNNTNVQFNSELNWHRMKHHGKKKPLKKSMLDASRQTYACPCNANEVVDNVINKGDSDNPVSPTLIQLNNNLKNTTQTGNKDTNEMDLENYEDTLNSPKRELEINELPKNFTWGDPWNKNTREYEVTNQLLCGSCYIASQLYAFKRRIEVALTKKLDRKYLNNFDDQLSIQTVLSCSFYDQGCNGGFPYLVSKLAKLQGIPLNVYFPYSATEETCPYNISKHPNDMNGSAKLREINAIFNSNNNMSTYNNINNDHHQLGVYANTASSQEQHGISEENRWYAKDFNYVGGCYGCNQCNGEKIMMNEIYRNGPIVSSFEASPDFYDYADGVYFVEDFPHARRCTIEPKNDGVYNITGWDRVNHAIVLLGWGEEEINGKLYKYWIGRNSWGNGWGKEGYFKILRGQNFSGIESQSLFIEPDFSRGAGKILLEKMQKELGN

| SMILES | % Inhibition @ 10 uM [%] |
| --- | --- |
| CO/C(O)=C1\C(C)=NC(=S)NC1c1cccc(OC)c1 (centres unmarked) | -1.66 |
| COc1ccc(S(=O)(=O)N(CC(=O)Nc2ccc3c(c2)OCCO3)c2ccccc2)cc1OC | -3.49 |
| CCCN(CCC)CCNC(=O)c1cc2c(s1)-c1ccc(Cl)cc1S(=O)(=O)C2 | -0.72 |
| CCOC(=O)NC1(C(F)(F)F)C(=O)N(Cc2ccccn2)C2=C1C(=O)CC(C)(C)C2 (centres unmarked) | -0.703 |
| CC1(C)CC(=O)C2=C(C1)OC(=O)CC2c1ccccc1C(F)(F)F (centres unmarked) | -2.19 |
| COc1cc(C2C3=C(CC(C)(C)CC3=O)N(C)C3=C2C(=O)CC(C)(C)C3)ccc1O | -1.6 |
| COc1cc2ccccc2cc1C(=O)NCC12CC3CC(CC(C3)C1)C2 | 2.4 |
| Cc1ccc(NC2CC(=O)N(c3ccccc3)C2=O)cc1 (centres unmarked) | 4.99 |
| Cc1ccc(CN2C(=O)N/C(=C/c3cc(Br)cs3)C2=O)cc1 | -9.02 |
| CCOc1cc(N2CCOCC2)ccc1[N+](=O)[O-] | 0.467 |
| CCN(CC)CCN(C)CC(C)c1ccccc1 (centres unmarked) | -3.8 |
| O=C(NC1CCCCC1)C1CCC(CNc2nc(S)nc3ccccc23)CC1 (centres unmarked) | 1.41 |
| O=C(COc1ccc(S(=O)(=O)NC2CCCCC2)cc1)NC1CCCCCC1 | -4.62 |
| O=C(NCCCN1CCC(Cc2ccccc2)CC1)c1cc(-c2ccncc2)nc2ccccc12 | 2.79 |
| CC(C)OCCCNC(=O)Cn1ncc2c3ccccc3n(Cc3cccc(Cl)c3)c2c1=O | -1.58 |
| OCC1CCCN(Cc2ccncc2)C1 (centres unmarked) | -1.64 |
| Oc1nc2ccccc2c(O)c1CCCOCc1ccccc1 | 3.53 |
| COc1ccc(S(=O)(=O)N2CCCC2C(=O)Nn2cnnc2)cc1 (centres unmarked) | 5.29 |
| CCN1CCN(C(=O)CCCn2c(=O)c3cccn3c3cccnc32)CC1 | -3.91 |
| CCOc1ccccc1C(=O)n1nc(N)c2cc3ccc(C)cc3nc21 | 1.62 |
| CCC(C)(C)NC(=O)C1CCN(c2cnccn2)CC1 | 0.596 |

| SMILES | % Inhibition @ 10 uM [%] |
| --- | --- |
| COc1ccccc1CNC(=O)C1CCCN(c2ncnc3c2nc2n3CCCCC2)C1 (centres unmarked) | 5.27 |
| N#C/C(=C\c1ccco1)c1nc2ccccc2[nH]1 | -4.01 |
| CSC=C(c1ccc(F)cc1)c1ccc(F)cc1 | 2.49 |
| C=CCSc1nc(=O)c2c(n1C)NC(=O)CC2c1ccc(F)cc1F (centres unmarked) | 0.596 |
| Cc1ccc2c(c1)-c1c(cnn1CC(=O)N1CCOCC1)CO2 | 0.383 |
| COc1ccc(CCNc2nc(-c3ccc(O)cc3)cs2)cc1OC | 4.96 |
| O=C(O)[C@@H]1CSC(c2ccncc2)N1 (some centres unmarked) | -0.999 |
| CC(C)(C)OC(=O)N1CCC(c2c(C(=O)NCCc3ccsc3)cnn2-c2ccccc2)CC1 | -2.9 |
| COc1ccc(-c2c(C#N)c(N)nc(SCC(=O)c3ccc(O)c(O)c3)c2C#N)cc1 | 2.3 |
| COC(=O)CCc1cn2ccccc2n1 | 0.427 |
| CC(C)C[C@H](NC(=O)OCc1ccccc1)C(=O)NC(C#N)CC(C)c1ccccc1 (some centres unmarked) | 1.71 |
| CCn1cc(CCCC(=O)NCc2ccc(F)cc2)c2ccccc21 | 1.23 |
| COc1ccccc1C(=O)Nc1ccc2c(c1)C(=O)N(CC(C)C)C2=O | 2.75 |
| O=C(NCCc1ccccc1)c1cc2c(s1)CSC2 | 5.32 |
| CC(C)CC(NC(=O)c1cccc(Br)c1)C(=O)O (centres unmarked) | -15.2 |
| Cc1noc(/C=C/c2ccco2)c1S(=O)(=O)N1CCC(C(=O)N(C(C)C)C2CCCCC2)CC1 | -8.9 |
| CCCCOCCCNC(=O)c1c(-c2ccccc2Cl)noc1C | 3.72 |
| O=P(OC(c1ccc(F)cc1)C(F)(F)F)(c1ccccc1)c1ccccc1 (centres unmarked) | 0.878 |
| COc1ccc(CN(C(=O)Cc2coc3cc(C)ccc23)C2CCS(=O)(=O)C2)cc1 (centres unmarked) | -2.4 |
| CC(C)(C)c1ccc(C(=O)CC2(O)C(=O)Nc3ccc(Br)cc32)cc1 (centres unmarked) | -0.46 |
| CC(C)COC(=O)NC(C)C(=O)O (centres unmarked) | 1.31 |

| SMILES | % Inhibition @ 10 uM [%] |
| --- | --- |
| O=C(Nc1ccc(S(=O)(=O)Nc2cnc3ccccc3n2)cc1)c1ccc(F)cc1 | -0.95 |
| Cc1ccc(CN(CC(=O)Nc2ccc3c(c2)OCCO3)S(=O)(=O)c2ccccc2)cc1 | -2.03 |
| CCOC(=O)N1CCc2c(sc3c2c(=O)n(Cc2ccccc2)c(=O)n3CC(=O)N(CC)CC)C1 | -6.52 |
| CC1(C)CC2=NC3=C(C(=O)CC(C)(C)C3)C(c3ccc(C#N)cc3)C2=C(O)C1 (centres unmarked) | 3.99 |
| CC(C)c1ccc(-c2c(NCCN3CCCCCC3)c(=O)c2=O)cc1 | -0.539 |
| Cc1cc(/C=C2\SC(N)=NC2=O)c(C)n1-c1ccc(F)cc1 | 2.05 |
| O=C(NCc1cccs1)c1cccc(COc2cccc(Cl)c2)c1 | -2.97 |
| Fc1ccc(C(OCCN2CCCC2)c2ccc(F)cc2)cc1 | 4.08 |
| Cn1c2ccccc2c2cc(C3C(C#N)=C(N)N(c4cccnc4)C4=C3C(=O)CCC4)ccc21 (centres unmarked) | 0.687 |
| O=S(=O)(c1ccc(-n2cnnn2)cc1)N1CCN(c2ccccn2)CC1 | -4.67 |
| CCOc1cccc2c1Oc1nc(-c3cc(OC)ccc3OC)nc(O)c1C2 | -1.06 |
| O=C(/C=C1\NC(=S)N(c2ccccc2)C1=O)c1ccccc1 | 7.13 |
| O=[N+]([O-])c1ccc(S(=O)(=O)Nc2cccc3c2CCCC3)cc1 | -2.36 |
| O=C(c1ccc(Cl)cc1)N1CCN(c2nnc(-c3ccccc3)c3ccccc23)CC1 | -2.75 |
| CCON1C(=O)CN(C(=O)OC)C1c1ccc(Cl)cc1Cl (centres unmarked) | 0.76 |
| CC1(C)CC(=O)C2=C(C1)N(Cc1ccc(F)cc1)C(=O)C2(NC(=O)c1ccccc1)C(F)(F)F (centres unmarked) | -4.18 |
| CCn1c2c(c(=O)[nH]c1=O)C(c1cccc(OC)c1)C1=C(O)c3ccccc3C1=N2 (centres unmarked) | 2.46 |
| CCOC(=O)c1s/c(=N\C(=O)c2ccc(Oc3ccccc3)cc2)n(C)c1C | 3.06 |
| COc1ccc(/C=C2/C(=O)N(c3ccccc3)C(c3ccccc3)S2(=O)=O)cc1 (centres unmarked) | 3.69 |
| CCCc1c(C)nc2ccc(OC)cc2c1Cl | -1.99 |
